# Test results published in PubChem BioAssay AID463173 (ICCB-Longwood Screening Facility, Harvard Medical School, 2010).
# In all, about 52,000 compounds went through this assay and about 1,700 (3.3%) were called active. No stated cut-off is given here; in the data, active means survival mostly below about 52% (no sharp cut-off); inactive means mostly above about 56%. The list shows a part of the results.
# Test system: Wild type
# Assay: S. aureus survival, RN4220 and DeltatarO strains – OD600, teichoic acid synthesis inhibitors, primary screen (AID 463173)
# Conditions: S. aureus RN4220 wild type/DeltatarO growth, OD600, 18 h, hits give low values, screened at 18.75 µg/mL (by protocol)
row,Structure (SMILES),survival
1,O=C(Nc1cc(F)ccc1F)c1ccc(CN2CC(=O)N3CCCCC3C2=O)cc1 (stereo not given),inactive: 76%
2,CC(=O)c1ccc(NC(=O)CSc2nnc(N)s2)cc1,inactive: 80%
3,COc1cc(Cl)c(C)cc1NC(=O)Cn1c(C)c2cnn(-c3ccccc3)c(=O)c2c1C,inactive: 87%
4,C=C(C)Cn1c(SCC(=O)c2ccccc2)nc2sc3c(c2c1=O)CCCC3,inactive: 84%
5,CC(=O)Nc1c(C)nn(-c2ccccc2)c1N1CCC(C(=O)NCc2ccc(F)cc2)CC1,active: -3%
6,O=C(Nc1cccc(C(F)(F)F)c1)C1CCN(S(=O)(=O)c2cccs2)CC1,inactive: 92%
7,O=C(O)CC1S/C(=N/N=C/c2ccccc2)NC1=O (stereo not given),inactive: 108%
8,COCCn1nnnc1C(CC(C)C)N1CCN(c2cc(Cl)ccc2C)CC1 (stereo not given),inactive: 109%
9,CCn1cc2nc(SCc3cccc(C(F)(F)F)c3)n(Cc3ccc(OC)cc3)c(=O)c2n1,inactive: 71%
10,NC(=O)C1CCN(C(=O)CCSc2ccc(Cl)cc2)CC1,inactive: 100%
11,COc1cc2c(cc1NC(=O)COc1ccc(Cl)cc1)oc1ccccc12,inactive: 83%
12,COc1ccc(NC(=O)Cn2c(=O)n(Cc3ccco3)c(=O)c3oc4ccccc4c32)cc1Cl,inactive: 78%
13,CN(C(=O)c1ccccc1)C1CCS(=O)(=O)C1 (stereo not given),inactive: 111%
14,CC(=O)Nc1ccc(C(=O)Nc2ccc3c(c2)N(C2CCCC2)C(=O)c2ccccc2S3)cc1,active: -6%
15,COc1ccc(-n2ncc3c2ncn2nc(Cc4ccccc4)nc32)cc1,inactive: 89%
16,Cc1ccccc1CNCc1c(C(=O)O)c(C)n(Cc2ccc(F)cc2Cl)c1C,inactive: 79%
17,Cc1ccc(-c2noc(-c3nnn(-c4ccc(Br)cc4F)c3C)n2)cc1,inactive: 89%
18,O=C(N1CCOCC1)N1CCN(Cc2ccccc2)CC1,inactive: 90%
19,O=C(Nc1ccc(F)cc1)c1cc2cc3ccc(Cl)cc3nc2o1,inactive: 88%
20,Cc1nc(N2CCN(C(=O)c3ccco3)CC2)c2c3c(sc2n1)CC(C(C)(C)C)CC3 (stereo not given),inactive: 98%
21,Cc1ccc(C(=O)N2CCCn3c2nc2ccccc23)cc1,inactive: 100%
22,Clc1ccccc1CN1CCc2nc(N3CCN(c4ncccn4)CC3)ncc2C1,inactive: 72%
23,Cc1nc(-c2cccc(S(=O)(=O)N3CCC(C(=O)NCc4ccccc4Cl)CC3)c2)no1,inactive: 72%

row,Structure (SMILES),survival
1,CCc1c(C)sc2c1CCN(C(=O)Nc1cc(C)ccc1C)C2c1ccc(OC)cc1 (stereo not given),inactive: 88%
2,COc1ccc(OC)c(CCNC(=O)Cn2nc(C)n3c(cc4sccc43)c2=O)c1,inactive: 91%
3,COc1ccc(-n2ncc(C(=O)NCCN3CCOCC3)c2C2CCN(C(=O)OC(C)(C)C)CC2)cc1,inactive: 131%
4,Cc1cccc(CSc2nnc(CCCCCN)o2)c1,inactive: 76%
5,Cc1ccc(C)c(NC(=O)c2nnn(Cc3ccc(F)cc3Cl)c2N)c1,inactive: 80%
6,Cn1nc(-c2ccccc2F)c2cc(C(=O)NCc3cccc(Cl)c3)sc21,inactive: 70%
7,Cc1cc(C)cc(NC(=O)c2cc(S(=O)(=O)N3CCCC3)ccc2F)c1,inactive: 90%
8,O=C(O)CSc1nc2ccccc2c(=O)n1Cc1ccco1,inactive: 107%
9,COc1cc(OC)c(NC(=O)N2CCc3cc(S(=O)(=O)N4CCC(C)CC4)ccc32)cc1Cl,inactive: 76%
10,O=c1oc2ccc3ccccc3c2cc1-c1nnc(Nc2cccc(C(F)(F)F)c2)s1,inactive: 94%
11,CCC1Oc2ccccc2N(CC(=O)NCCc2ccc(OC)c(OC)c2)C1=O (stereo not given),inactive: 111%
12,O=C(NCCc1ccccc1)c1cnc2sc(N3CCCCC3)nn2c1=O,inactive: 85%
13,COc1ccc(CCNS(=O)(=O)c2ccc(N3CCCCS3(=O)=O)cc2)cc1,inactive: 127%
14,O=C(c1cc2c(s1)-c1ccccc1OC2)N1CCN(c2ccc(F)cc2)CC1,inactive: 69%
15,CC1CCC(NC(=O)Cn2ncc3c4ccccc4n(Cc4ccc(F)cc4)c3c2=O)CC1 (stereo not given),inactive: 82%
16,O=c1[nH]c2ccc(NCc3ccc(-c4ccc(F)cc4)o3)cc2[nH]1,inactive: 102%
17,c1ccc2c(c1)ncc1nncn12,inactive: 67%
18,CC(=O)c1cccc(NC(=O)C2CCN(S(=O)(=O)c3ccccc3)CC2)c1,inactive: 73%
19,COc1ccc(CNC(=O)c2nn(C)c3c2CS(=O)(=O)c2ccccc2-3)cc1,inactive: 87%
20,Cc1ccc(CN(C(=O)COc2ccc([N+](=O)[O-])cc2)c2ccccn2)o1,inactive: 83%
21,CCC1CCCCN1S(=O)(=O)c1cc2c(cc1C)NC(=O)CO2 (stereo not given),inactive: 98%
22,CC(=O)c1ccc(NC(=O)CSc2ccc3nnc(CCNS(=O)(=O)c4ccc(C)cc4)n3n2)cc1,inactive: 91%
23,Cc1ccc(Nc2ncc(C(=O)Nc3ccc(F)cc3F)c3ccccc23)cc1Cl,inactive: 76%

row,Structure (SMILES),survival
1,O=C(COc1ccccc1)Nc1nnc(SCc2cc(=O)n3cc(Cl)ccc3n2)s1,inactive: 57%
2,COc1ccc(CCNC(=O)CCS(=O)(=O)c2cc3c(cc2Cl)NC(=O)CO3)cc1OC,inactive: 86%
3,CCCc1nn2cc(-c3ccc(C)c(C)c3)nc2s1,inactive: 117%
4,CCOC(=O)Cc1c(C)nc2c(-c3ccc(Cl)cc3)c(C(F)(F)F)nn2c1C,inactive: 49%
5,COc1ccc(-c2noc(CSc3nnc(Cc4ccccc4)n3-c3cccc(C)c3)n2)cc1,inactive: 67%
6,COc1ccc(/C=C/C(=O)Nc2ccc3nc4c(c(Nc5ccc(OC)c(OC)c5)c3c2)CCCC4)cc1,inactive: 73%
7,Cc1cc(C)n(CC(C)O)c(=O)c1C#N (stereo not given),inactive: 106%
8,CCc1nnc(SCC(=O)Nc2cccc(C(F)(F)F)c2)c2cc3oc(C)cc3n12,inactive: 74%
9,Cc1ccc2onc(CNC(=O)NCc3ccccc3)c2c1,inactive: 91%
10,CCC(C(=O)Nc1ccccc1OC)n1c(C(=O)OC)cc2sc(Cl)cc21 (stereo not given),active: 0%
11,Cc1oc(-c2ccccc2Cl)nc1CS(=O)(=O)CC(=O)NC(C)c1ccccc1 (stereo not given),inactive: 97%
12,CCOCCCNC(=O)c1ccc2c(=O)n(CCc3ccc(OC)c(OC)c3)c(=O)[nH]c2c1,inactive: 85%
13,CC(=O)N1CCc2cc(S(=O)(=O)NC(CC(C)C)C(=O)NCCc3cccc(C)c3)ccc21 (stereo not given),inactive: 76%
14,CCOc1ccccc1CNC(=O)CSc1nnc(C)c2c(C)n(-c3ccccc3)nc12,inactive: 72%
15,Cc1ccc(NC(=O)c2ccc(CNS(=O)(=O)c3ccc4c(c3)C(C)(C)C(=O)N4C)cc2)cc1F,inactive: 83%
16,CCCCOc1ccccc1C(=O)N(Cc1cccc(F)c1)C1CCS(=O)(=O)C1 (stereo not given),inactive: 85%
17,CCOC(=O)C1=C(CN(C)Cc2ccccc2)NC(=O)NC1c1ccc(OC)cc1 (stereo not given),inactive: 71%
18,O=C(NCC(c1cccnc1)N1CCc2ccccc21)c1ccc(F)cc1 (stereo not given),inactive: 105%
19,CCOc1ccc(NC(=O)N(C)CCc2c(C)nn(C)c2C)cc1,inactive: 76%
20,CCOc1ccc(CCNC(=O)CSc2nnnn2-c2ccc(C)cc2C)cc1OCC,inactive: 82%
21,COc1ccc(OC(C)C(=O)NCc2nc(-c3cccc(C)c3)no2)cc1 (stereo not given),inactive: 87%
22,COCCN1Cc2cc3cc4c(cc3nc2SC1=Nc1cccc(OC)c1)OCO4,inactive: 113%
23,Cc1ccc(NC(=O)C(C)Sc2nc(N)cc(N)n2)c(C)c1 (stereo not given),inactive: 108%

row,Structure (SMILES),survival
1,COc1cc(OC)c(NC(=O)C(Cc2ccccc2)NS(=O)(=O)c2cccc3nsnc23)cc1Cl (stereo not given),inactive: 82%
2,CN(C)c1ccc(NC(=O)CSc2nc3ccsc3c(=O)n2CCCCCC(=O)O)cc1,inactive: 70%
3,O=C1CC2CCC(CN1)N2S(=O)(=O)c1ccc(C(=O)O)cc1 (stereo not given),inactive: 107%
4,Cc1c(C(=O)N(Cc2ccco2)Cc2ccccc2Cl)oc2ccc(F)cc12,inactive: 84%
5,COc1ccc(CC(=O)Nc2cc(-c3cn4cccnc4n3)ccc2OC)cc1,inactive: 119%
6,CCCCC(=O)NC1(C(F)(F)F)C(=O)Nc2c1c(=O)[nH]c(=O)n2-c1ccc(C)c(C)c1 (stereo not given),inactive: 64%
7,O=C(Nc1ccc2nc(SCCOc3ccccc3Cl)sc2c1)c1ccc2c(c1)OCO2,inactive: 89%
8,CC(C)CCNC(=O)CN1C(=O)c2cccnc2Sc2ccccc21,inactive: 69%
9,CC(=O)c1cccc(NC(=O)Cc2noc3ccccc23)c1,inactive: 90%
10,CCS(=O)(=O)c1ccccc1C(=O)Nc1ccc(-c2nc3ccccc3s2)cc1,inactive: 77%
11,COc1cccc(NC(=O)CSC2=Nc3ccccc3C3=NC(CC(=O)NCc4ccc5c(c4)OCO5)C(=O)N23)c1 (stereo not given),inactive: 143%
12,Cc1cc(C)c(NC(=O)C(=O)NCC(c2cccnc2)N2CCN(Cc3ccccc3)CC2)c(C)c1 (stereo not given),inactive: 84%
13,O=C(c1cccnc1)N1N=C(C(F)(F)F)CC1(O)c1cccnc1 (stereo not given),inactive: 97%
14,Cc1ccccc1-c1noc(-c2ccc(N3CCN(C)CC3)c([N+](=O)[O-])c2)n1,inactive: 73%
15,c1ccc(-n2nnnc2NC2CCCCCC2)cc1,inactive: 104%
16,COc1ccc(C)cc1NC(=O)Nc1ccccc1OCc1cc(=O)n2ccccc2n1,inactive: 73%
17,CCCCNC(=O)c1cnc2sc(N3CCCCCC3)nn2c1=O,inactive: 85%
18,CSc1nn(Cc2cccc(Cl)c2)c(N(C(C)=O)C(C)=O)c1S(=O)(=O)c1ccccc1,inactive: 62%
19,COc1ccc2c(c1)c1c(c(=O)n(-c3ccccc3)c(=O)n1CC(=O)NCc1ccc(C)cc1)n2C,inactive: 70%
20,O=C(CSc1nnc(COc2ccccc2)o1)N1CCCC1,inactive: 106%
21,CC(C)COC(=O)c1nnsc1NC(=O)Nc1ccccc1,inactive: 96%
